Laboratory results reported in publication PMC9911399, “Two distinct binding modes provide the RNA-binding protein RbFox with extraordinary sequence specificity”.
Substitutions are numbered along the chain they refer to; changes in the protein carry UniProt numbers. The list shows a part of the results.

B1: GUUCUGC (DNA:RNA)
RNA: GGGAGACCGGAAUUCAGAUUGUCCGUUCUGCUUAAAUCCCGUCGUAGCCACCA
DNA 1: CAATCTGAATTCCGGTCTCCC
DNA 2: TGGTGGCTACGACGGGATT
B2: ACCUCAG (DNA:RNA)
RNA: GGGAGACCGGAAUUCAGAUUGUCCACCUCAGUUAAAUCCCGUCGUAGCCACCA
DNA 1: CAATCTGAATTCCGGTCTCCC
DNA 2: TGGTGGCTACGACGGGATT
B3: AGCUUCC (DNA:RNA)
RNA: B2 RNA with C26G, C29U, A30C, G31C
DNA 1: CAATCTGAATTCCGGTCTCCC
DNA 2: TGGTGGCTACGACGGGATT
B4: UUGAAGG (DNA:RNA)
RNA: B1 RNA with G25U, U27G, C28A, U29A, C31G
DNA 1: CAATCTGAATTCCGGTCTCCC
DNA 2: TGGTGGCTACGACGGGATT
B5: CCCUUAA (DNA:RNA)
RNA: B2 RNA with A25C, C29U, G31A
DNA 1: CAATCTGAATTCCGGTCTCCC
DNA 2: TGGTGGCTACGACGGGATT
B6: CCGCAAC (DNA:RNA)
RNA: B2 RNA with A25C, C27G, U28C, C29A, G31C
DNA 1: CAATCTGAATTCCGGTCTCCC
DNA 2: TGGTGGCTACGACGGGATT
B7: GAUUCGG (DNA:RNA)
RNA: B2 RNA with A25G, C26A, C27U, A30G
DNA 1: CAATCTGAATTCCGGTCTCCC
DNA 2: TGGTGGCTACGACGGGATT
B8: AUGCUCA (DNA:RNA)
RNA: B1 RNA with G25A, U27G, G30C, C31A
DNA 1: CAATCTGAATTCCGGTCTCCC
DNA 2: TGGTGGCTACGACGGGATT
B9: AACGACC (DNA:RNA)
RNA: B2 RNA with C26A, U28G, C29A, A30C, G31C
DNA 1: CAATCTGAATTCCGGTCTCCC
DNA 2: TGGTGGCTACGACGGGATT
B10: ACCGUAC (DNA:RNA)
RNA: B2 RNA with U28G, C29U, G31C
DNA 1: CAATCTGAATTCCGGTCTCCC
DNA 2: TGGTGGCTACGACGGGATT
B11: UCUGGGU (DNA:RNA)
RNA: B1 RNA with G25U, U26C, C28G, U29G, C31U
DNA 1: CAATCTGAATTCCGGTCTCCC
DNA 2: TGGTGGCTACGACGGGATT
B12: UUAGCCU (DNA:RNA)
RNA: B2 RNA with A25U, C26U, C27A, U28G, A30C, G31U
DNA 1: CAATCTGAATTCCGGTCTCCC
DNA 2: TGGTGGCTACGACGGGATT
B13: UUAUUCG (DNA:RNA)
RNA: B2 RNA with A25U, C26U, C27A, C29U, A30C
DNA 1: CAATCTGAATTCCGGTCTCCC
DNA 2: TGGTGGCTACGACGGGATT
B14: GUGAAAA (DNA:RNA)
RNA: B1 RNA with U27G, C28A, U29A, G30A, C31A
DNA 1: CAATCTGAATTCCGGTCTCCC
DNA 2: TGGTGGCTACGACGGGATT
B15: GGGACAA (DNA:RNA)
RNA: B2 RNA with A25G, C26G, C27G, U28A, G31A
DNA 1: CAATCTGAATTCCGGTCTCCC
DNA 2: TGGTGGCTACGACGGGATT
B16: AGGGUAU (DNA:RNA)
RNA: B2 RNA with C26G, C27G, U28G, C29U, G31U
DNA 1: CAATCTGAATTCCGGTCTCCC
DNA 2: TGGTGGCTACGACGGGATT
B17: GUCUUUC (DNA:RNA)
RNA: B1 RNA with U27C, C28U, G30U
DNA 1: CAATCTGAATTCCGGTCTCCC
DNA 2: TGGTGGCTACGACGGGATT
B18: UACACCC (DNA:RNA)
RNA: B2 RNA with A25U, C26A, U28A, A30C, G31C
DNA 1: CAATCTGAATTCCGGTCTCCC
DNA 2: TGGTGGCTACGACGGGATT
B19: CAGCCAC (DNA:RNA)
RNA: B2 RNA with A25C, C26A, C27G, U28C, G31C
DNA 1: CAATCTGAATTCCGGTCTCCC
DNA 2: TGGTGGCTACGACGGGATT
B20: AGCCUAU (DNA:RNA)
RNA: B2 RNA with C26G, U28C, C29U, G31U
DNA 1: CAATCTGAATTCCGGTCTCCC
DNA 2: TGGTGGCTACGACGGGATT
B21: GAAUUUA (DNA:RNA)
RNA: B1 RNA with U26A, U27A, C28U, G30U, C31A
DNA 1: CAATCTGAATTCCGGTCTCCC
DNA 2: TGGTGGCTACGACGGGATT
B22: AUCAUUG (DNA:RNA)
RNA: B2 RNA with C26U, U28A, C29U, A30U
DNA 1: CAATCTGAATTCCGGTCTCCC
DNA 2: TGGTGGCTACGACGGGATT
B23: UGAUUUU (DNA:RNA)
RNA: B2 RNA with A25U, C26G, C27A, C29U, A30U, G31U
DNA 1: CAATCTGAATTCCGGTCTCCC
DNA 2: TGGTGGCTACGACGGGATT
B24: UAGUUAU (DNA:RNA)
RNA: B2 RNA with A25U, C26A, C27G, C29U, G31U
DNA 1: CAATCTGAATTCCGGTCTCCC
DNA 2: TGGTGGCTACGACGGGATT
B25: UAGAUUC (DNA:RNA)
RNA: B1 RNA with G25U, U26A, U27G, C28A, G30U
DNA 1: CAATCTGAATTCCGGTCTCCC
DNA 2: TGGTGGCTACGACGGGATT
B26: GUACUCU (DNA:RNA)
RNA: B1 RNA with U27A, G30C, C31U
DNA 1: CAATCTGAATTCCGGTCTCCC
DNA 2: TGGTGGCTACGACGGGATT
B27: CAUUCGG (DNA:RNA)
RNA: B2 RNA with A25C, C26A, C27U, A30G
DNA 1: CAATCTGAATTCCGGTCTCCC
DNA 2: TGGTGGCTACGACGGGATT
B28: UUCGUGC (DNA:RNA)
RNA: B1 RNA with G25U, U27C, C28G
DNA 1: CAATCTGAATTCCGGTCTCCC
DNA 2: TGGTGGCTACGACGGGATT
B29: CACGAGU (DNA:RNA)
RNA: B2 RNA with A25C, C26A, U28G, C29A, A30G, G31U
DNA 1: CAATCTGAATTCCGGTCTCCC
DNA 2: TGGTGGCTACGACGGGATT
B30: UGCUAAA (DNA:RNA)
RNA: B2 RNA with A25U, C26G, C29A, G31A
DNA 1: CAATCTGAATTCCGGTCTCCC
DNA 2: TGGTGGCTACGACGGGATT
B31: AUUAUGC (DNA:RNA)
RNA: B1 RNA with G25A, C28A
DNA 1: CAATCTGAATTCCGGTCTCCC
DNA 2: TGGTGGCTACGACGGGATT

Target: T1, RBFOX1 RRM (Homo sapiens, UniProt Q9NWB1 109-208)
T1 sequence: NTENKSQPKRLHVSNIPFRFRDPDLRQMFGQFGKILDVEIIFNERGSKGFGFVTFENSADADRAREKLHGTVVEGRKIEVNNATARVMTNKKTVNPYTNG
Assay: EMSA; HiTS-Eq, 1 nM pool, 10 min; buffer printed only for the single-RNA assays: 10 mM Tris pH 7.5, 150 mM NaCl, 3.4 mM EDTA, 0.001% NP-40, 30 C
Conditions: tags: His6 N-terminal (pET28a); label: 5' 32P
Summary of the method: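 Relative association constants, normalised to the cognate motif, were derived by comparing read counts of each RNA species with those of the control reaction. The RNA sequenced was the free fraction, separated by 8% native PAGE after a 10 min equilibration in 50 µL of 1 nM 5′-radiolabelled RNA (7 randomized nucleotides) with increasing concentrations of purified wild-type or mutant RbFox RRM.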

| Binder | binding signal |
| --- | --- |
| B1 | 0.0272 KA relative to UGCAUGU |
| B2 | 0.00561 KA relative to UGCAUGU |
| B3 | 0.00899 KA relative to UGCAUGU |
| B4 | 0.0111 KA relative to UGCAUGU |
| B5 | 0.00271 KA relative to UGCAUGU |
| B6 | 0.00902 KA relative to UGCAUGU |
| B7 | 0.0065 KA relative to UGCAUGU |
| B8 | 0.0077 KA relative to UGCAUGU |
| B9 | 0.00537 KA relative to UGCAUGU |
| B10 | 0.00318 KA relative to UGCAUGU |
| B11 | 0.00879 KA relative to UGCAUGU |
| B12 | 0.00481 KA relative to UGCAUGU |
| B13 | 0.0188 KA relative to UGCAUGU |
| B14 | 0.00822 KA relative to UGCAUGU |
| B15 | 0.0291 KA relative to UGCAUGU |
| B16 | 0.0148 KA relative to UGCAUGU |

| Binder | binding signal |
| --- | --- |
| B17 | 0.015 KA relative to UGCAUGU |
| B18 | 0.00137 KA relative to UGCAUGU |
| B19 | 0.00328 KA relative to UGCAUGU |
| B20 | 0.00375 KA relative to UGCAUGU |
| B21 | 0.00394 KA relative to UGCAUGU |
| B22 | 0.0047 KA relative to UGCAUGU |
| B23 | 0.0194 KA relative to UGCAUGU |
| B24 | 0.00794 KA relative to UGCAUGU |
| B25 | 0.0117 KA relative to UGCAUGU |
| B26 | 0.0101 KA relative to UGCAUGU |
| B27 | 0.00582 KA relative to UGCAUGU |
| B28 | 0.0243 KA relative to UGCAUGU |
| B29 | 0.00553 KA relative to UGCAUGU |
| B30 | 0.0104 KA relative to UGCAUGU |
| B31 | 0.0074 KA relative to UGCAUGU |
